According to the RNAGym collection of RNA variant scans (doi:10.1093/nar/gkz1192):
Read counts are not given, so values of variants with three or more changes are uncertain.

B1: CPEB3 Ribozyme (parent)
chain: UAACAGGGGGCCACAGCAGAAGCGUUCACGUCGCAGCCCCUGUCAGAUUCUGGUGAAUCUGCGAAUUCUGCUGUAUAUCUC

Variants of: B1
Experiment: self-cleavage, relative activity (ratio to wild type); higher = more cleavage; in vitro, sequencing
Procedure, shortened: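 Relative activity was defined as the cleaved/total read fraction for a variant divided by the same fraction for the unmutated ribozyme. CPEB3 self-cleaving ribozyme libraries were made by rounds of error-prone PCR, barcoded, and transcribed in vitro with T7 RNA polymerase for 5 hours at 37°C, and cleavage ran through transcription plus a 15 min DNase I step before EDTA. Illumina sequencing of template-switched reverse transcripts gave the reads, and DNA sequencing mapped the barcodes. Averages come from three batches, using variants with at least 5 reads.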

Variant | self-cleavage
A3G U25A U80C | 0.54
A3G U25C A28G U74C | 0.72
A3G U25C A35G U41G U66C U80A | 0.58
A3G U25C A35G U72A | 0.43
A3G U25C A56G | 0.35
A3G U25C A56G U72A | 0.42
A3G U25C A57G U80C | 0.11
A3G U25C C37A U41C U51C | 0.4
A3G U25C C38A U48A U49C C71A | 0.35
A3G U25C G33A U41C U51G G55A U80C | 0.16
A3G U25C G33U | 0.18
A3G U25C U26A G53U U67C | 0.24
A3G U25C U31C U54C A65U | 0.17
A3G U25C U41C U74C U80C | 0.16
A3G U25C U76A | 0
A3G U25C U80C | 0.22
A3G U25G A64U | 0.28
A3G U25G U54A A65C U69A U78C | 0.07
A3G U26A A28U | 0.66
A3G U26A A35G U51A A56U | 1.2
A3G U26A A45G U49C | 0.13

Variant | self-cleavage
A3G U26A U51C U69C | 0.22
A3G U26C A28G C40U U54C U60A U80G | 0.09
A3G U26C A28U A35U U41A U54C | 0.26
A3G U26C A35G U43A A77U | 0.3
A3G U26C A35G U67A | 0.31
A3G U26C A35U U69A U72C | 0.1
A3G U26C A57G U69A U78C | 0.32
A3G U26C A57U | 0.2
A3G U26C C29U U60A A64G U67C | 0.04
A3G U26C C38A U54C A57U G61A | 0.34
A3G U26C C44U A47G A75U | 0.57
A3G U26C C59U U66C | 0.34
A3G U26C C68A U69G | 0.41
A3G U26C G42A U51A U67A | 0.47
A3G U26C G70U | 0.22
A3G U26C U31A U41A G46A | 0.07
A3G U26C U31C U41A A77G | 0
A3G U26C U41A U80C | 0.1
A3G U26C U41C U69A | 0.18
A3G U26C U48C G55A U66C | 0.11
A3G U26C U51A U54C | 0.66

Variant | self-cleavage
A3G U26C U60A | 0.58
A3G U26G A35U A45G U66C U72C | 0.41
A3G U31A A57G A64G | 0.38
A3G U31A C40A A56G U60A U78C | 0.06
A3G U31A U51C | 0.47
A3G U31C A57G | 0.96
A3G U31C A57G U69C | 0.45
A3G U31C A77G U80C | 1.15
A3G U31C C39G U67C | 0.26
A3G U31C C44U | 0.29
A3G U31C G46A U58C A77G | 0.13
A3G U31C G70A | 0.4
A3G U31C U43C U66G U78A | 0.44
A3G U31C U51C G55A A57U | 0.23
A3G U31C U69C | 0.3
A3G U41A A45G U51A U60C U69A U80G | 0.06
A3G U41A A56G U80G | 0.08
A3G U41A U48A A64G A65G | 0.07
A3G U41A U49C A57G | 0.25
A3G U41A U58A C62U | 0.19
A3G U41C A45G U69C | 0.54

Variant | self-cleavage
A3G U41C A47G C62G | 0.29
A3G U41C A64C | 0.3
A3G U41C C44A U60C U76A | 0.2
A3G U41C C59U | 1.06
A3G U41C G55C U72A A77U | 0.69
A3G U41C U49C | 0.5
A3G U41C U60C | 0.41
A3G U41C U66C | 0.41
A3G U41C U67C | 0.3
A3G U43A A45G U69C | 0.36
A3G U43C A45G U60C | 0.44
A3G U43C A47G U80C | 0.77
A3G U43C A56U A57C G63A A65G U69A | 0.08
A3G U43C A57U U60A | 0.19
A3G U43C U51A G53C U54C A56C | 0.32
A3G U43C U60C U72C | 0.09
A3G U43C U78C | 0.26
A3G U43G C71U | 0.45
A3G U48A A57U | 1.13
A3G U48C U51C | 0.56
A3G U48C U60G U66A U67C | 0.27
